What was measured:
Assay in all cases: cell-based or functional assay
[1] = molecular target: envelope of HIV-1 strain BaL (HIV-1 strain BaL); design: unit not given beside the values
[2] = molecular target: envelope of HIV-1 strain JR-FL (JRFLwt), on virus (HIV-1 strain JR-FL); design: unit not given beside the values
[3] = molecular target: envelope of HIV-1 clinically isolated strain MTA; design: unit not given beside the values
[4] = molecular target: envelope of HIV-1 clinically isolated strain MOKW; design: unit not given beside the values
[5] = molecular target: envelope of HIV-1 clinically isolated strain YKI; design: unit not given beside the values
[6] = molecular target: envelope of HIV-1 clinically isolated strain YIS; design: unit not given beside the values
[7] = molecular target: envelope of HIV-1 clinically isolated strain MIS; design: unit not given beside the values
[8] = molecular target: envelope of HIV-1 clinically isolated strain kKGO; design: unit not given beside the values
[9] = molecular target: envelope of HIV-1 clinically isolated strain KMT; design: unit not given beside the values
[10] = molecular target: envelope of HIV-1 clinically isolated strain TR43; design: unit not given beside the values
[11] = molecular target: envelope of HIV-2 strain EHO (HIV-2 strain EHO); design: unit not given beside the values
[12] = molecular target: envelope of standard panel pseudotyped virus SVPB5 (HIV-1 subtype B)
[13] = molecular target: envelope of standard panel pseudotyped virus SVPB6 (HIV-1 subtype B)
[14] = molecular target: envelope of standard panel pseudotyped virus SVPB8 (HIV-1 subtype B)
[15] = molecular target: envelope of standard panel pseudotyped virus SVPB11 (HIV-1 subtype B)
[16] = molecular target: envelope of standard panel pseudotyped virus SVPB12 (HIV-1 subtype B)
[17] = molecular target: envelope of standard panel pseudotyped virus SVPB13 (HIV-1 subtype B)
[18] = molecular target: envelope of standard panel pseudotyped virus SVPB14 (HIV-1 subtype B)
[19] = molecular target: envelope of standard panel pseudotyped virus SVPB15 (HIV-1 subtype B)
[20] = molecular target: envelope of standard panel pseudotyped virus SVPB16 (HIV-1 subtype B)
[21] = molecular target: envelope of standard panel pseudotyped virus SVPB17 (HIV-1 subtype B)
[22] = molecular target: envelope of standard panel pseudotyped virus SVPB18 (HIV-1 subtype B)

B1: 49G2 (antibody, IgG1, V domains shown)
VH: [letters of about 100 residues omitted]GPIAAATHAFDIWGQGTMVTVSS
VL: QSVLTQPPSASGTPGQRVTISCSGSGSNIGSNTVNWYQQFPGTAPKLLIYNNNQRPSGVPDRFSGSKSGTSASLAISGLQSADEADYYCATWDDSLDGWVFGGGTKLTVLG
[1]
  IC50, neutralizing activity (MTT assay): > 50
[2]
  IC50, neutralizing activity (MTT assay): 23
[3]
  IC50, neutralizing activity (MTT assay): 0.9
[4]
  IC50, neutralizing activity (MTT assay): 2.2
[5]
  IC50, neutralizing activity (MTT assay): 1
[6]
  IC50, neutralizing activity (MTT assay): 1.8
[7]
  IC50, neutralizing activity (MTT assay): 0.25
[8]
  IC50, neutralizing activity (MTT assay): 9.6
[9]
  IC50, neutralizing activity (MTT assay): > 50
[10]
  IC50, neutralizing activity (MTT assay): > 50
[11]
  IC50, neutralizing activity (MTT assay): > 50
[12]
  IC50 in TZM-bl cells: 2.1 µg/mL
[13]
  IC50 in TZM-bl cells: > 50 µg/mL
[14]
  IC50 in TZM-bl cells: > 50 µg/mL
[15]
  IC50 in TZM-bl cells: > 50 µg/mL
[16]
  IC50 in TZM-bl cells: 7.8 µg/mL
[17]
  IC50 in TZM-bl cells: > 50 µg/mL
[18]
  IC50 in TZM-bl cells: > 50 µg/mL
[19]
  IC50 in TZM-bl cells: > 50 µg/mL
[20]
  IC50 in TZM-bl cells: 7.8 µg/mL
[21]
  IC50 in TZM-bl cells: > 50 µg/mL
[22]
  IC50 in TZM-bl cells: > 50 µg/mL

Source: patent US20110044995A1 (KUMAMOTO UNIVERSITY, published 2011)
